Assay results published in PubChem BioAssay (NCATS).
The shares of active, inactive and inconclusive entries below differ from those in the screen. For some assays here: Potencies beside an inconclusive call are fits to weak or partial responses and may not hold up. Calls of active or inactive are those of the source. Unless noted, calls come from the whole dose curve; as a rule, active = well fitted curve in the direction sought with a large enough effect; inconclusive = small, poorly fitted or top-dose-only effect, or another doubt; inactive = no such curve, though single readings can be large; an effect the other way counts as inactive or inconclusive.

Assays:
[1] = qHTS to identify inhibitors of the type 1 interferon - major histocompatibility complex class I in skeletal muscle: primary screen against the NCATS Mechanism Interrogation Plate v5.0 (MIPE) Libary (AID 1347411); settings: iHSKM cells + IFN-b, HiBiT-tagged MHC-I luminescence, 24 h; activity change, negative = inhibition: at 45.8 µM (top of the series); note: nearly all actives have a fitted effect of over 65% in size
Outline: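 Cells were genome-edited human myoblasts carrying a HiBit tag on endogenous HLA-B. They were treated with IFN-beta (4.0 ng/ml) and titrated compounds (top 46 uM) for 24 hrs before lytic HiBiT detection.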

[2] = biological target: Cytochrome P450 2C9 (Homo sapiens) (UniProt P11712); experiment: Cytochrome P450 family 2 subfamily C member 9 (CYP2C9) small molecule antagonists: luciferase biochemical (cell-free) qHTS assay (AID 1645842; active = well fitted curve in the direction sought with a large enough effect in the repeat runs; inconclusive = weak or mixed curves; inactive = no such curve, though single readings can be large; an effect the other way counts as inactive or inconclusive; note: nearly all actives have a fitted effect of over 55% in size)
Sequence of UniProt P11712 (P11712 whole entry, looked up): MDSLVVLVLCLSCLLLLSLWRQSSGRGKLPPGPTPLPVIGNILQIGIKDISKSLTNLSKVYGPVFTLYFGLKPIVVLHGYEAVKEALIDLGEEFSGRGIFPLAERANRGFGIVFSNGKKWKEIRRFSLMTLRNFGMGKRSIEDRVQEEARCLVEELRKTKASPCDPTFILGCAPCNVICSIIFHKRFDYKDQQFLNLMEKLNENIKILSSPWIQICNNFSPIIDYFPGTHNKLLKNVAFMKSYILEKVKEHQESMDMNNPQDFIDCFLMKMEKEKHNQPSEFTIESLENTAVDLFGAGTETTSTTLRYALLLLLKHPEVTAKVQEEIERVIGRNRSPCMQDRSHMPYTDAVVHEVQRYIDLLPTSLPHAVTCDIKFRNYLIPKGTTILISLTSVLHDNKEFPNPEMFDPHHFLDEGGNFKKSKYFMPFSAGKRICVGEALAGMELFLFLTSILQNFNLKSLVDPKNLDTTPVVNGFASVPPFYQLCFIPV
Outline: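 Luminescence, after 20 min with luciferin detection reagent, reflected CYP2C9 turnover during a 1 h NADPH-driven reaction at 37C. Enzyme-substrate mix contained 0.4% bovine serum albumin and was preincubated with compound 10 min at room temperature.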

[3] = qHTS of pediatric cancer cell lines to identify multiple opportunities for drug repurposing: Primary screen for A673 cells (AID 1347092); settings: A673 Ewing sarcoma viability, CellTiter-Glo ATP luminescence, 48 h; activity change, negative = cytotoxic: at 46 µM (top of the series); note: nearly all actives have a fitted effect of over 45% in size
Outline: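 Cells are plated, rested 5 h, dosed by pintool, incubated 48 h, then lysed with CellTiter-Glo and read by luminescence. DMSO is the neutral control; bortezomib at 2.3 uM final is the positive control.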

[4] = qHTS of pediatric cancer cell lines to identify multiple opportunities for drug repurposing: Primary screen for BT-37 cells (AID 1347094)
Outline: (§1)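 Readout: CellTiter-Glo luminescence, 48 h treatment. Controls DMSO (neutral) and bortezomib 2.3 µM final (positive). Potency and efficacy taken from primary-screen concentration-response curves.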

[5] = qHTS of pediatric cancer cell lines to identify multiple opportunities for drug repurposing: Primary screen for NB1643 cells (AID 1347099); note: nearly all actives have a fitted effect of over 50% in size
Outline: as §1

[6] = qHTS of pediatric cancer cell lines to identify multiple opportunities for drug repurposing: Primary screen for BT-12 cells (AID 1347101); note: nearly all actives have a fitted effect of over 25% in size
Outline: (§2)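 Cells (500-1,000/well) rested 5 h, then received compounds for 48 h; metabolically active cells were measured by CellTiter-Glo luminescence. Final concentrations spanned up to 46 µM (MIPE, 11-point) or 0.59 nM-46 µM (NPC, 8-point) in primary screens, 11-point in follow-ups.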

[7] = qHTS of pediatric cancer cell lines to identify multiple opportunities for drug repurposing: Primary screen for OHS-50 cells (AID 1347103); note: nearly all actives have a fitted effect of over 40% in size
Outline: as §2

[8] = qHTS of pediatric cancer cell lines to identify multiple opportunities for drug repurposing: Primary screen for MG 63 (6-TG R) cells (AID 1347105); settings: MG 63 (6-TG R) viability, CellTiter-Glo, 48 h; activity change, negative = cytotoxic: at 46 µM (top of the series); note: nearly all actives have a fitted effect of over 50% in size
Outline: as §1

[9] = qHTS of pediatric cancer cell lines to identify multiple opportunities for drug repurposing: Primary screen for control Hh wild type fibroblast cells (AID 1347106); note: nearly all actives have a fitted effect of over 55% in size
Outline: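 Viability after 48 h compound treatment at 37C, 500-1,000 cells/well, read as ATP luminescence with CellTiter-Glo. Primary screens used 11-point (MIPE, 0.78 nM-46 µM) or 8-point (NPC, 0.59 nM-46 µM) final concentrations; follow-up screens used 11-point dilutions.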

[10] = qHTS of pediatric cancer cell lines to identify multiple opportunities for drug repurposing: Primary screen for Rh41 cells (AID 1347108); note: nearly all actives have a fitted effect of over 70% in size
Outline: as §1

[11] = biological target: Cytochrome P450 2D6 (Homo sapiens) (UniProt P10635); experiment: Cytochrome P450 family 2 subfamily D member 6 (CYP2D6) small molecule antagonists: luciferase biochemical (cell-free) qHTS assay (AID 1645840; active = well fitted curve in the direction sought with a large enough effect in the repeat runs; inconclusive = weak or mixed curves; inactive = no such curve, though single readings can be large; an effect the other way counts as inactive or inconclusive; note: nearly all actives have a fitted effect of over 55% in size; for activity change, negative = inhibition: % is set by controls: 0 for no effect and ±100 for the full control effect)
Sequence of UniProt P10635 (P10635 whole entry, looked up): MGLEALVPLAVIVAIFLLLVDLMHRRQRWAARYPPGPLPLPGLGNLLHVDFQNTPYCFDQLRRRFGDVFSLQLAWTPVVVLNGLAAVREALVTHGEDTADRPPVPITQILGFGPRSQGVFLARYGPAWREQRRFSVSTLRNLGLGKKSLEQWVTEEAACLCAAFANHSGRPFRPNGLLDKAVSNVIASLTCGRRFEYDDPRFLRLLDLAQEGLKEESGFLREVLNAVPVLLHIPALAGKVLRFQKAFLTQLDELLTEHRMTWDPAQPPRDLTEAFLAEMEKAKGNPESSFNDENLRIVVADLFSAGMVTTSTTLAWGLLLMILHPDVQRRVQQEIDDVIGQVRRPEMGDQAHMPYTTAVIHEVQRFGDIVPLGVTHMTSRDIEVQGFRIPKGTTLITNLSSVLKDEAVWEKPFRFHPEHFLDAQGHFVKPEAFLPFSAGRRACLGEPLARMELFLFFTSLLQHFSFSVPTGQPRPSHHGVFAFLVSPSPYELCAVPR
Outline: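 P450-Glo luminescent screen: recombinant CYP2D6 enzyme–proluciferin substrate mix preincubated with compound 10 min at room temperature, then NADPH regeneration added for 1 h at room temperature. Detection reagent added for 20 min; luciferin light read as relative luminescence units.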

UISO = experiment: qHTS assay to identify novel small-molecules to repurpose for Merkel cell carcinoma treatment (AID 1296009); settings: MCC and control cell lines, CellTiter-Glo viability, 72 h; activity change, negative = cytotoxicity: at 46 µM (top of the series); note: nearly all actives have a fitted effect of over 60% in size
Outline: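 After compound transfer in DMSO, plates were kept 72 hr at 37 degree celsius. Luminescent ATP signal from CellTiter-Glo served as viability measure, normalized against DMSO and no-cell controls.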

[12] = system: Zika virus NS2B-NS3 protease (unlinked complex); experiment: Primary screen GU Rhodamine qHTS for Zika virus inhibitors: Unlinked NS2B-NS3 protease assay (AID 1347159); note: nearly all actives have a fitted effect of over 60% in size; for activity change, negative = inhibition: % is set by controls: 0 for no effect and ±100 for the full control effect
Outline: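 Compounds, tested up to 114 microM, were incubated for 15 minutes with 25 nM unlinked NS2B-NS3 protease at pH 8.0. Cleavage of 1.5 microM Rhodamine110 substrate was then followed by fluorescence for 15 minutes.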

[13] = qHTS of pediatric cancer cell lines to identify multiple opportunities for drug repurposing: Primary screen for SJ-GBM2 cells (AID 1347091)
Outline: (§3)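 Cell viability, CellTiter-Glo luminescence; 500-1,000 cells/well, 8- or 11-point titration, 48 h compound exposure at 37 degrees C, 5% CO2. Controls: DMSO neutral, bortezomib 2.3 µM final as positive.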

[14] = qHTS of pediatric cancer cell lines to identify multiple opportunities for drug repurposing: Primary screen for SK-N-SH cells (AID 1347098); note: nearly all actives have a fitted effect of over 65% in size
Outline: as §2

[15] = qHTS assay to identify inhibitors of the type 1 interferon - major histocompatibility complex class I in skeletal muscle: Counter screen cell viability and HiBit confirmation (AID 1347412); settings: iHSKM muscle cells + IFN-b, HiBiT or CellTiter-Glo, 24 h; note: nearly all actives have a fitted effect of over 60% in size; for activity change, negative = inhibition: % is set by controls: 0 for no effect and ±100 for the full control effect
Outline: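 Myoblasts (C25cl48, HLA-B HiBiT) seeded in medium without dexamethasone, IFN-b 4 ng/ml added except unstimulated columns; 1 hr later compounds pinned (12-pt 1:3, top 46 uM final). Incubated 24 hrs, lysed 10 min, luminescence measured.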

[16] = system: Zika virus NS2B-NS3 protease (linked construct); experiment: Primary screen NINDS Rhodamine qHTS for Zika virus inhibitors (AID 1347160); settings: activity change, negative = inhibition: at 57.1 µM (top of the series) unless noted; note: nearly all actives have a fitted effect of over 55% in size; for activity change, negative = inhibition: % is set by controls: 0 for no effect and ±100 for the full control effect
Outline: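 Percent inhibition, normalized to uninhibited and enzyme-free controls, is fitted to a 4-parameter Hill equation. Fluorescence change comes from a 15-min cleavage of 1.5 microM bis-peptide Rhodamine110 substrate by 25 nM linked NS2B-NS3 at room temperature.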

[17] = qHTS of pediatric cancer cell lines to identify multiple opportunities for drug repurposing: Primary screen for DAOY cells (AID 1347090); settings: DAOY medulloblastoma viability, CellTiter-Glo luminescence, 48 h; activity change, negative = cytotoxic: at 46 µM (top of the series); note: nearly all actives have a fitted effect of over 55% in size
Outline: as §3

[18] = Primary qHTS for small molecule stabilizers of the endoplasmic reticulum resident proteome: Secreted ER Calcium Modulated Protein (SERCaMP) assay (AID 1508630); settings: SH-SY5Y GLuc-SERCaMP (Gaussia luciferase released on ER calcium loss) secretion, thapsigargin, luminescence; activity change, negative = inhibition: at 38.4 µM (top of the series) unless noted
Outline: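 GLuc-SERCaMP-expressing SH-SY5Y cells, pretreated 16 h with compound, are challenged with thapsigargin to empty ER calcium stores; after 4 h, coelenterazine is added directly to the medium and luminescence is imaged.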

[19] = qHTS of pediatric cancer cell lines to identify multiple opportunities for drug repurposing: Primary screen for NB-EBc1 cells (AID 1347095)
Outline: as §1
Potency is the fitted concentration of half-maximal effect; tags give direction and shape of the fitted curve.

For `CCC(=O)NS(=O)(=O)c1ccc(-c2c(-c3ccccc3)noc2C)cc1`, the Potency [1] was inconclusive: 18.6 µM [inhibitor, partial curve, poor fit].
In the case of `CC(C)n1cnc2c(Nc3cccc(Cl)c3)nc(NCCO)nc21`, the Potency [2] was active: 9.52 µM.
In the case of `O=C(Nc1ccc(Cl)cc1)Nc1ccc(Cl)c(C(F)(F)F)c1`, the Potency [3] was active: 21.1 µM, the Potency [4] was active: 27.6 µM and the Potency [5] was inconclusive: 2.66 µM [cytotoxic, full curve]. For the same compound, the Potency [6] was active: 9.78 µM, the Potency [7] was active: 5.5 µM and the Potency [8] was active: 21.1 µM. For the same compound, the Potency [9] was inconclusive: 23.7 µM [cytotoxic, single point], the Potency [10] was inconclusive: 13.3 µM [cytotoxic, partial curve] and the Potency [11] was active: 13.8 µM. For the same compound, the Potency (UISO) was active: 10.6 µM.
For `Cc1csc2c(N[C@@H](C)CN3CCN(S(=O)(=O)c4ccc(Cl)c(Cl)c4)CC3)ncnc12`, the Potency [11] was active: 0.425 µM.
In the case of `C=C1C(=O)OC2/C=C(/C)C3=CC(=O)C(C)(CC(OC(=O)/C(C)=C/COC(C)=O)C12)O3` (configuration not stated), the Potency [12] was inconclusive: 7.08 µM [inhibitor, full curve].
For `COC(=O)Nc1ccc(-c2nc(N3CCOCC3)c3cnn(C4CCN(Cc5cccnc5)CC4)c3n2)cc1`, the Potency [13] was active: 0.743 µM, the Potency [14] was active: 21.5 µM and the Potency [6] was active: 1.09 µM. For the same compound, the Potency [8] was active: 0.235 µM, the Potency [9] was inconclusive: 0.372 µM [cytotoxic, full curve] and the Potency [10] was active: 0.132 µM. The Potency [1] was inconclusive: 2.34 µM [inhibitor, full curve], the Potency ([15]; HiBiT) was inconclusive: 2.49 µM [inhibitor, partial curve] and the Potency ([15]; Viability) was inconclusive: 4.43 µM [cytotoxic, partial curve]. For the same compound, the Potency (UISO) was active: 1.87 µM.
In the case of `CN(C)c1ccc2c(c1)OC(N)=C(C#N)C2c1cccc(C(F)(F)F)c1` (configuration not stated), the Potency [16] was inconclusive: 22.4 µM [inhibitor, partial curve, poor fit].
In the case of `CC(C=CC1=C(C)CCCC1(C)C)=CC=CC(C)=CC(=O)Nc1ccc(O)cc1`, the Potency [17] was active: 42.9 µM, the Potency [14] was active: 55.5 µM and the Potency [7] was active: 17.7 µM. The Potency [9] was inconclusive: 38.2 µM [cytotoxic, partial curve], the Potency [10] was active: 7.62 µM and the Potency [18] was inconclusive: 0.0061 µM [inhibitor, full curve, poor fit]. For the same compound, the Potency (UISO) was inconclusive: 17.1 µM [inhibitor, full curve].
With `CCN1CCN(Cc2ccc(NC(=O)Nc3ccc(Oc4cc(NC)ncn4)cc3)cc2C(F)(F)F)CC1` the Potency [1] was active: 7.39 µM.
For `O=C(NNc1nc2cc(F)ccc2n2cccc12)c1cnccn1`, the Potency [11] was “inactive”.
For `C=CC(=O)Nc1cc(Nc2nccc(-c3c[nH]c4ccccc34)n2)c(OC)cc1N(C)CCN(C)C`, the Potency [2] was active: 8.49 µM.
For `O=S(=O)(NCC1CC1)c1ccc(Nc2nccc(N3CCCc4cc(O)ccc43)n2)cc1`, the Potency [12] was active: 39.8 µM.
With `CO[C@H]1/C=C/[C@@](C)(O)/C=C/C(=O)O[C@H](C)[C@@H](C)CC/C=C/1C` the Potency [12] was “inactive”.
For `CNS(=O)(=O)c1ccccc1Nc1nc(Nc2ccc(N3CCN(C)CC3)cc2OC)ncc1Cl`, the Potency [11] was inconclusive: 21.3 µM [inhibitor, partial curve, poor fit].
With `COc1cc(Br)c(S(=O)(=O)Nc2ccc(Cl)c(O[C@@H]3CCN(C)C3)c2)cc1OC` the Potency [11] was active: 15.1 µM.
For `C[C@H](Nc1ncnc2nc[nH]c12)c1cc2cccc(Cl)c2c(=O)n1-c1ccccc1`, the Potency [1] was inconclusive: 1.86 µM [inhibitor, full curve], the Potency [2] was inconclusive: 0.756 µM [inhibitor, single point] and the Potency ([15]; HiBiT) was inconclusive: 2.49 µM [inhibitor, full curve, poor fit].
In the case of `C=CC(=O)Nc1cccc(Oc2nc(Nc3ccc(N4CCN(C)CC4)cc3)ncc2Cl)c1`, the Potency [17] was active: 0.935 µM, the Potency [19] was active: 2.35 µM and the Potency [5] was inconclusive: 0.743 µM [cytotoxic, full curve]. The Potency [7] was active: 3.06 µM, the Potency [9] was active: 16.6 µM and the Potency [10] was active: 11.8 µM. For the same compound, the Potency [12] was “inactive”, the Potency ([15]; Viability) was inconclusive: 7.01 µM [cytotoxic, partial curve] and the Potency (UISO) was inconclusive: 1.66 µM [inhibitor, full curve].
For `Clc1ccc(Nc2nc3ccccc3c3nc(C4CCCCC4)[nH]c23)cc1Cl`, the Potency [12] was inconclusive: 39.8 µM [inhibitor, partial curve].
In the case of `CCC(CC)n1ccc2c(C(=O)NCc3c(C)cc(C)[nH]c3=O)cc(C#N)cc21`, the Potency [16] was “inactive”, the Potency [11] was “inactive” and the Potency [2] was active: 4.77 µM.
In the case of `CN(C)C/C=C/C(=O)Nc1cccc(C(=O)Nc2cccc(Nc3ncc(Cl)c(-c4c[nH]c5ccccc45)n3)c2)c1`, the Potency [12] was inconclusive: 70.8 µM [inhibitor, partial curve], the Potency [1] was active: 0.658 µM and the Potency ([15]; HiBiT) was active: 1.11 µM. The activity change, negative = inhibition ([15]; Viability, at 45.9 µM (top of the series)) was inactive: 0.891%.
With `Cc1noc(-c2ccc(-c3ccc(CC(=O)O)cc3)cc2)c1NC(=O)O[C@H](C)c1ccccc1Cl` the Potency [12] was active: 3.16 µM, the Potency [16] was active: 4.47 µM and the Potency [11] was inconclusive: 30.1 µM [inhibitor, single point].
